In PubChem BioAssay AID624296 (National Center for Advancing Translational Sciences (NCATS), 2012):
The campaign covered roughly 350,000 compounds. About 9,900 (2.8%) were called active. The inconclusive results got no clear call from the source; some entries with a clear call stand among them for comparison. Calls come from the whole dose curve; as a rule, active = well fitted activation curve with a large enough effect; inconclusive = small, poorly fitted or top-dose-only effect; inactive = no such curve, though single readings can be large or run the other way. No potency is given beside an inconclusive call; the fits are too rough.

assay: A quantitative high throughput screen for small molecules that induce DNA re-replication in MCF 10a normal breast cells.; note: nearly all actives have a fitted effect of over 50% in size; conditions: MCF 10A DNA re-replication, Hoechst nuclear intensity, 48 h; series mostly up to 46.1 µM
Potency is the fitted concentration of half-maximal effect; tags give direction and shape of the fitted curve.

Row | SMILES | Potency
1 | COC(=O)C1=C(C(=O)OC)[C@@H]2N(Cc3ccccc3)c3ccccc3[C@@]23C[C@@H](C(=O)OC)N(C(=O)NC(C)(C)C)C3=N1 | inactive
2 | O=C(Cc1cccc(NC(=O)C2CCN(C(=O)CCc3ccccc3)CC2)c1)Nc1cccc(C(=O)N2CCOCC2)c1 | inactive
3 | Cc1cc(C)cc(NC(=S)Nc2ccc3cn[nH]c3c2)c1 | inactive
4 | CCN(CC)CCNC(=O)c1ccc(NC(=O)c2cn(-c3ccc(F)cc3)nc2-c2cccc(OC)c2)cc1 | inconclusive [activator, single point]
5 | NC(=O)c1c(N)sc2c1CCCC2 | inactive
6 | O=[N+]([O-])c1ccc(O)c(Nc2c([N+](=O)[O-])ccc3nonc23)c1 | inactive
7 | CCCn1nnnc1NCc1ccccc1OCc1ccc(F)cc1 | active: 23.1 µM
8 | O=C(NNc1ccccc1Cl)C(O)(c1cccc(C(F)(F)F)c1)c1cccc(C(F)(F)F)c1 | active: 16.4 µM
9 | COc1ccc(OCC(=O)Nc2nc3ccc(NC(C)=O)cc3s2)cc1 | inconclusive [activator, single point]
10 | Cc1ccc(O)c(C(=O)/C=C/c2ccc3c(c2)OCCCO3)c1 | active: 13 µM
11 | O=C(NCCCN1CCOCC1)c1ccc(CSCc2cccc(Cl)c2)o1 | inconclusive [activator, partial curve, poor fit]
12 | COc1ccc(C(=O)N[C@H](C(=O)N2CCN(c3ccccc3F)CC2)C(C)C)cc1 | inactive
13 | Cc1ccc(NC(=O)NCCN2CCCCC2)cc1 | inactive
14 | CCCc1[nH]n(-c2ccc([N+](=O)[O-])cc2)c(=O)c1C(C)=NCc1ccncc1 | inactive
15 | CCN(CC(O)CON=C1c2ccccc2-c2ccccc21)S(=O)(=O)c1ccc(C)cc1 (stereo unspecified) | inconclusive [activator, partial curve]
16 | CCCCn1c(NC(=O)c2ccccc2)nc2ccccc21 | inconclusive [activator, full curve, poor fit]
17 | O=C(/C=C/c1cccs1)Nc1nccs1 | inconclusive [activator, single point]
18 | NC(=O)c1ccc(-n2nnnc2SCC(=O)NC2CCCCC2)cc1 | inactive
19 | Nc1c(N2CCCCC2)c(=O)[nH]c(=O)n1-c1ccccc1 | inconclusive [activator, single point]
20 | CCN(C(=O)CN1c2ccccc2CC1C)c1c(N)n(Cc2ccccc2)c(=O)[nH]c1=O (stereo unspecified) | inconclusive [activator, single point]
21 | COc1cc(OC)cc(C(=O)NNC(=S)Nc2ccc(S(N)(=O)=O)cc2)c1 | inconclusive [activator, single point]
22 | CCN1CCCC1CNCc1ccc(OCc2ccc(Cl)nc2)c(OC)c1 (stereo unspecified) | active: 5.8 µM
23 | Cc1cc(=O)oc(C)c1C(=O)OCC(=O)c1ccccc1 | inactive
24 | COC(=O)CSc1nc(-c2ccccc2)c2c(c1C#N)CCCC2 | inconclusive [activator, single point]

Row | SMILES | Potency
25 | O=C(COC(=O)c1ccc2[nH]c3c(c2c1)CCCC3)Nc1ccc(Cl)cc1Cl | inconclusive [activator, single point]
26 | COc1ccc(CNC(=O)c2csc3c2CCCC3)cc1 | inconclusive [activator, partial curve, poor fit]
27 | Cc1ccc2nc(/C=C/c3cccc(F)c3)ccc2c1 | inconclusive [activator, partial curve, poor fit]
28 | O=C(NCCC1=CCCCC1)C(=O)NCc1ccncc1 | inconclusive [activator, single point]
29 | CCCN(CC(=O)Nc1ccccc1OC)C(=O)CSC(=S)N1CCCC1 | inactive
30 | O=C(NCc1ccccc1CN1CCCC1)c1ccc(Cl)c(S(=O)(=O)N2CCCC2)c1 | inconclusive [activator, single point]
31 | CC1CC=C(c2ccccc2)C(=S)N1 (stereo unspecified) | inconclusive [activator, partial curve, poor fit]
32 | COc1cccc(-c2c(C#N)c(N)nc3c2c(C)nn3-c2ccccc2)c1O | inconclusive [activator, single point]
33 | COCCn1c(=S)[nH]c2sc3c(c2c1=O)CCC(C)C3 (stereo unspecified) | inconclusive [activator, single point]
34 | Clc1ccc(OCc2nnc(-c3ccccc3Br)o2)cc1 | inconclusive [activator, partial curve, poor fit]
35 | COc1ccc(C(=O)c2c(-c3ccc(OC)cc3)oc3ccccc23)cc1 | inconclusive [activator, partial curve, poor fit]
36 | CC1CCN(S(=O)(=O)c2ccc(C(=O)Nc3nnc(-c4ccco4)o3)cc2)CC1 | inconclusive [activator, partial curve]
37 | CC(=O)Nc1ccc(NC(=O)COC(=O)c2ccccc2C(=O)c2ccccc2)cc1 | inactive
38 | O=C(CSc1ncc(-c2ccccc2)[nH]1)Nc1ccccc1 | inconclusive [activator, full curve]
39 | O=C(COC(=O)c1ccccc1Br)Nc1ccc(F)cc1 | inactive
40 | CC(C)(C)c1ccc(C(=O)CCCSC2=C(C#N)C(c3ccco3)C3=C(CCCC3=O)N2)cc1 (stereo unspecified) | inconclusive [activator, partial curve]
41 | O=[N+]([O-])c1ccccc1CNCCCCCO | inactive
42 | COc1ccc(-c2cc(C(F)F)n3ncc(C(=O)n4ccnc4C)c3n2)cc1 | active: 16.4 µM
43 | COc1ccc(C(CNC(=O)C(CCSC)NC(=O)c2ccccc2Cl)N2CCCC2)cc1 (stereo unspecified) | inconclusive [activator, partial curve, poor fit]
44 | Nc1c(N(Cc2ccco2)C(=O)c2cccc(F)c2)c(=O)[nH]c(=O)n1Cc1ccccc1 | inactive
45 | Cc1ccnc(NC(=O)c2ccccc2NC(=O)C(C)(C)C)c1 | active: 16.4 µM
46 | COc1ccc(NC(=O)NC2(C(=O)N3CCCCC3)CCCCC2)cc1 | inactive
47 | Cc1cc(C)cc(NC(=O)CSc2nnc(-c3ccccc3C)o2)c1 | inactive
48 | Cc1ccc(S(=O)(=O)N2CCC(C(=O)OC3CCOC3=O)CC2)cc1C (stereo unspecified) | inconclusive [activator, single point]

Row | SMILES | Potency
49 | Cc1ccc(S(=O)(=O)N2CCN(C(=O)c3ccc4c(c3)OCO4)CC2)cc1 | inconclusive [activator, single point]
50 | O=c1[nH]c(SCc2nc3ccccc3c(=O)n2-c2ccccc2)nc2ccccc12 | inconclusive [activator, single point]
51 | CSC(=S)NCc1cccnc1 | active: 3.26 µM
52 | Cc1ccccc1N(C(=O)c1snc(C(N)=O)c1N)C(C(=O)NC1CCCC1)c1ccco1 (stereo unspecified) | inconclusive [activator, single point]
53 | CN(CC(=O)Nc1ccc(F)cc1)C(=O)CSc1nnc(Cc2ccccc2)o1 | inactive
54 | Cc1cc(C)c2nc(SCC(=O)N3CC(=O)Nc4ccccc43)c(C#N)cc2c1 | active: 0.82 µM
55 | Cc1ccc(C)c2[nH]c(=O)c(CCNC(=O)c3ccc(S(=O)(=O)N4CCCC4)cc3)cc12 | inactive
56 | O=C(N/N=C/c1ccc(Cl)cc1Cl)Nc1ccccc1 | inconclusive [activator, partial curve, poor fit]
57 | Cc1cc(C)nc(NC(=O)Nc2ccccc2C(F)(F)F)n1 | inconclusive [activator, partial curve, poor fit]
58 | O=[N+]([O-])c1nn(-c2ccccc2)n(O)c1=NC1CCN(Cc2ccccc2)CC1 | inconclusive [activator, single point]
59 | COc1ccc(-n2c(C)cc(C(=O)Cn3c(NCCO)nc4ccccc43)c2C)cc1 | inconclusive [activator, partial curve, poor fit]
60 | COc1ccc(-n2c(SCC(=O)Nc3nccs3)nc3c(c2=O)SCC3)cc1 | inconclusive [activator, partial curve, poor fit]
61 | Cc1ccc2cc(CN(Cc3ccc4c(c3)OCO4)Cc3nnnn3Cc3ccco3)c(=O)[nH]c2c1 | inconclusive [activator, single point]
62 | Cc1nn(-c2ccccc2)c2[nH]c(=O)cc(C(F)(F)F)c12 | inconclusive [activator, single point]
63 | O=C(COc1ccc2ccccc2c1)Nc1nc2ccccc2[nH]1 | inconclusive [activator, partial curve, poor fit]
64 | O=C(O)/C=C/c1ccc2c(c1)OCCO2 | inactive
65 | CN(C)C(=O)c1ccc(NC(=O)c2cccc(S(=O)(=O)N3CCCc4ccccc43)c2)cc1 | inconclusive [activator, full curve]
66 | C/C(=N\Nc1cc(C)nc(-c2ccccc2O)n1)c1ccccc1O | inconclusive [activator, full curve]
67 | CC1Cn2c(nnc2-c2cccc(Cl)c2)S1 (stereo unspecified) | inactive
68 | Cc1cc(NC(=O)c2nn(C)c(C)c2Br)no1 | inconclusive [activator, full curve, poor fit]
69 | CCc1cccc(CC)c1NC(=O)CCCSc1nc2ccccc2s1 | inactive
70 | CN(C)CC(CCC(CN(C)C)C(=O)c1ccccc1)C(=O)c1ccccc1 (stereo unspecified) | inconclusive [activator, full curve, poor fit]
71 | Cc1ccnc(NC(=O)Nc2ccc3c(c2)N(C)C(=O)CS3)c1 | inconclusive [activator, single point]
